Structures are written as SMILES. Substitutions are numbered along the chain they refer to. Entries with a single value are a further part of the results.

For assay [1], the target named is T1, glutamine synthetase mutant S52A Y397V (Escherichia coli, UniProt P0A9C5, S53A/Y398V).
T1 construct: made in house; host or cells: E. coli YMC11 (glutamine synthetase auxotroph), pBluescript II SK+
T1 sequence (P0A9C5 2-469 S53A/Y398V limits assumed): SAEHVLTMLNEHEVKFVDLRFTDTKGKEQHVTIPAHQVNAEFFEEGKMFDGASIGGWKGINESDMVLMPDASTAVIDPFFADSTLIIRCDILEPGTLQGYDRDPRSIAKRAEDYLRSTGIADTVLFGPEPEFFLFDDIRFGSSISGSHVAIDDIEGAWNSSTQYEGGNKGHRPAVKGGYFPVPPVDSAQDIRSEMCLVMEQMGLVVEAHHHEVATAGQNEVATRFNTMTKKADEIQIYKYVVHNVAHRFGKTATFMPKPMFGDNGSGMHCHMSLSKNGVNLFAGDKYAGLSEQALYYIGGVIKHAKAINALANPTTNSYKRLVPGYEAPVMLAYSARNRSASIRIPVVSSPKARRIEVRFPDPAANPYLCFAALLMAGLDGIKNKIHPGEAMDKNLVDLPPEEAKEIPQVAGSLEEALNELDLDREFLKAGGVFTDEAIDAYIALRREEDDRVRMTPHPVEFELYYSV
The assay can be described thus: HPLC forward-reaction glutamine synthetase assay with serine protease inhibitors. Conditions: 1 mM inhibitor, 60 min pre-incubation, vs no-inhibitor control, positive = activity increased. In kind it is biochemical, E. coli. On the procedure: This assay was set up to measure glutamine synthetase activity according to the forward reaction, and measures the amount of glutamine formed from […] of L-glutamate in the presence of MnCO3-ATP (the basis of one reaction) and MgATP (the basis of a second reaction). In addition, the amount of ADP formed is also measured in a separate assay, using the same reagents.
All enzyme preparations were adjusted to the same concentration of protein, and added to the assay mixture in a volume of 50 μl. The addition of the enzyme started the reaction, which was then allowed to proceed for 1 hour. The reaction was stopped by the addition of 6 μl of a 50% solution of trichloroacetic acid. Each assay was then aliquoted into 4 HPLC vials (150 μl per vial), two of which were assayed for glutamate and glutamine using a Phenomenex Luna 5 μC18 Column on an Agilent 100 HPLC instrument. The ATP/ADP assays were run on a Chromolith Performance RP-18c column also using an Agilent 100 HPLC instrument.
As it is believed that two putative catalytic triads, similar to those in the serine proteases, are involved in the reaction mechanism of glutamine synthetase, certain of the mutants were also assayed by HPLC in the presence of the serine protease inhibitors, AEBSF and PMSF, in order to assess the effect that these inhibitors had on the enzyme. The enzymes assessed were the adenylylated WT enzyme, the deadenylylated WT enzyme, and the mutant enzymes S52A, S52A Y397V, S53A, S53A Y397V, S52A S53A and S52A S53A Y397V. The enzymes were pre-incubated for 60 minutes in the presence of 1 mM PMSF or 1 mM AEBSF. A control reaction was set up for each enzyme, which contained no inhibitor. Each enzyme was then added to assays set up as described above. The assay was allowed to proceed for 60 minutes, then stopped by the addition of […] of 50% TCA, after which they were analysed by HPLC. All assays were run in triplicate.
In addition to the γ-glutamyl transferase assays, assays were also developed to measure the rate of conversion of ATP and glutamate to ADP and glutamine by HPLC. These were set up as single assays but analysed separately for glutamate and glutamine and ATP and ADP. The conversion rates for glutamate to glutamine, in both the presence of Mn^2+ and Mg^2+ by glutamine synthetase, is referred to as the […] specific activity and is presented in μmoles/min/mg protein. The conversion rates for ATP to ADP, in both the presence of Mn^2+ and Mg^2+ by glutamine synthetase, is referred to as the ADP-based specific activity and is presented in μmoles/min/mg protein. The percentage of conversion was also calculated by dividing the glutamine-based specific activity by the ADP-based specific activity, and this value is interpreted as the ability of the enzyme to complete both steps of the reaction, i.e., glutamate to glutamine and ATP to ADP, at an equivalent level of efficiency.

Assay [2] has as its target T2, glutamine synthetase mutant Y397V (Escherichia coli, UniProt P0A9C5, Y398V).
T2 construct: made in house; host or cells: E. coli YMC11 (glutamine synthetase auxotroph), pBluescript II SK+
T2 sequence (P0A9C5 2-469 Y398V limits assumed): T1 sequence (P0A9C5 2-469 S53A/Y398V limits assumed) with A52S
The assay is described as above. The format is biochemical, E. coli. Conditions: 1 mM inhibitor, 60 min pre-incubation, positive = activity increased.

[3] abbreviates: Mg assay, ADP-based specific activity.
The mark [4] stands for this setting: Mg assay, glutamine-based specific activity.
[5] abbreviates: Mn assay, ADP-based specific activity.
Setting [6] is: Mn assay, glutamine-based specific activity.

`NCCc1ccc(S(=O)(=O)F)cc1` [AEBSF]: the “% Change in Specific Activity” value in assay [1] (setting [3]) was −100.00%; in assay [1] (setting [4]), “+1.95%”; in assay [1] (setting [5]), −16.65%; in assay [1] (setting [6]) it was −11.57%. In addition, the “% change in specific activity vs no-inhibitor control” value in assay [2] (setting [3]) was −43.37%; in assay [2] (setting [4]), −10.83%; in assay [2] (setting [5]), −20.13%; in assay [2] (setting [6]), −4.98%.
On to `O=S(=O)(F)Cc1ccccc1` [PMSF], for which the “% Change in Specific Activity” value in assay [1] (setting [3]) was “+73.28%”; in assay [1] (setting [4]), −77.41%; in assay [1] (setting [5]) it was −15.50%; in assay [1] (setting [6]), −29.12%. In addition, the “% change in specific activity vs no-inhibitor control” value is reported as −4.88% in assay [2] (setting [3]), −31.39% in assay [2] (setting [4]), −17.58% in assay [2] (setting [5]) and −44.47% in assay [2] (setting [6]).

Source of the values: patent US20100022584A1, “Modulation of Glutamine Synthetase Activity” (priority 2006, published 2010).
